11 compounds from the antibiotic and cytotoxicity screens of Wong et al. (2023) can be followed below.

The structures appear in SMILES notation. Some of the results follow.

The test concerns S. aureus RN4220. Description: growth inhibition call (relative growth <= 0.2). Conditions: 50 µM.
In the case of `C[C@@H]1CN([C@H](C)CO)C(=O)c2c(c3ccccc3n2C)-c2ccccc2CO[C@@H]1CN(C)S(=O)(=O)c1ccc(Cl)cc1`, the growth inhibition call was “inactive”.
As to `NCC1OC(OC2C(CO)OC(OC3C(O)C(N)CC(N)C3OC3OC(CO)C(O)C(O)C3N)C2O)C(N)C(O)C1O.O=S(=O)(O)O` (stereo unspecified), the growth inhibition call is “active”.
For `CNc1ncnc2c1ncn2[C@@H]1O[C@H](CO)[C@@H](O)[C@H]1O`, the growth inhibition call is “inactive”.
For the compound `CCOC[C@@H](O)CN`, the growth inhibition call is “inactive”.
As to `COc1ccc(C#Cc2ccc3c(c2)[C@]2(C(=O)N3)[C@H](C(=O)N3CCN(c4ncccn4)CC3)[C@H]3C(=O)O[C@H](c4ccccc4)[C@H](c4ccccc4)N3[C@@H]2c2ccc(O)cc2)cc1`, the growth inhibition call was “inactive”.
On to `Cc1noc(C)c1NC(=O)Nc1ccc2c(c1)C(=O)N([C@@H](C)CO)C[C@H](C)[C@H](CN(C)S(=O)(=O)c1ccc(Cl)cc1)OCCCC[C@@H](C)O2`, for which the growth inhibition call was “inactive”.
With `Cc1noc(C)c1NC(=O)Nc1cccc2c1O[C@@H](CN(C)Cc1ccc(Oc3ccccc3)cc1)[C@H](C)CN([C@H](C)CO)C2=O`, the growth inhibition call was “inactive”.
For the compound `C[C@@H]1CN([C@H](C)CO)C(=O)Cc2cc(NC(=O)Cc3ccccc3)ccc2O[C@@H]1CN(C)C(=O)Nc1cccc2ccccc12`, the growth inhibition call is “inactive”.
Regarding `Cc1noc(C)c1S(=O)(=O)Nc1ccc2c(c1)CC(=O)N([C@@H](C)CO)C[C@@H](C)[C@@H](CN(C)S(=O)(=O)c1cccs1)O2`, the growth inhibition call was “inactive”.
In the case of `O=C1C(=CNC(CO)(CO)CO)C(=O)c2ccccc21` it was “inactive”.
In the case of `C[C@@H]1CN([C@H](C)CO)C(=O)Cc2cc(NC(=O)Nc3cccc4ccccc34)ccc2O[C@@H]1CN(C)C(=O)Nc1ccc(F)cc1`, the growth inhibition call was “inactive”.
